Where a name gives a salt, the structure may show the parent alone. ± gives the standard deviation of the averaged measurements. Some of the results follow. Many values rest on one well or one pass, so single values are uncertain.
Key:
Assay in all cases: log2 surviving fraction relative to plate median (drug vs vehicle, or drug+dl922-947 vs dl922-947 alone); ovarian cancer lines: OVCAR4 is platinum-sensitive while Ov4Cis resists cisplatin and Ov4Carbo carboplatin; higher = more cell survival
Conditions in all cases: compound concentration: 10 uM, 192 h
OVCAR4 = test system: OVCAR4
Ov4Carbo = test system: Ov4Carbo
Ov4Cis = test system: Ov4Cis
[1] = dl922-947 oncolytic adenovirus co-treatment: MOI 10
[2] = dl922-947 oncolytic adenovirus co-treatment: none

| SMILES | log2 surviving fraction (OVCAR4; [1]) | log2 surviving fraction (OVCAR4; [2]) | log2 surviving fraction (Ov4Carbo; [1]) | log2 surviving fraction (Ov4Carbo; [2]) | log2 surviving fraction (Ov4Cis; [1]) | log2 surviving fraction (Ov4Cis; [2]) |
| --- | --- | --- | --- | --- | --- | --- |
| O=C(O)c1cc(=O)c2ccccc2o1 [Chromocarb] | -0.834 ± 0.073 | 0.142 ± 1.1 | -0.403 | 0.168 | -1.13 | -0.799 |
| CS(=O)(=O)c1ccc([C@@H](O)[C@@H](CF)NC(=O)C(Cl)Cl)cc1 [Florfenicol] | -0.371 ± 0.62 | -0.998 ± 0.39 | 0.956 | -0.683 | 0.0527 | -0.0647 |
| O=C(O)c1cc(=O)c2c(OCC(O)COc3cccc4oc(C(=O)O)cc(=O)c34)cccc2o1 [Disodium Cromoglycate] | 0.396 ± 0.2 | 0.525 ± 1.3 | -0.585 | -0.652 | -0.592 | 1.02 |
| O=c1c(-c2ccc(O)cc2)coc2cc(O)ccc12 [Daidzein] | 0.226 ± 0.26 | -0.164 ± 1.2 | -0.284 | -0.64 | 0.271 | -0.244 |
| CN1CCC(=C2c3ccccc3CC(=O)c3sccc32)CC1 [Ketotifen fumarate (Zaditor)] | -0.424 ± 0.5 | -0.109 ± 0.023 | -1.17 | -0.51 | -0.802 | -0.415 |
| OC[C@H]1OC(O)[C@H](O)[C@@H](O)[C@@H]1O (stereo partly drawn) [Dextrose (D-glucose)] | -0.0971 ± 0.58 | -0.0435 ± 0.74 | 0.0994 | 1.55 | -0.457 | -0.573 |
| CC[C@@H]1/C=C(\C)C[C@H](C)C[C@H](OC)[C@H]2O[C@@](O)(C(=O)C(=O)N3CCCC[C@H]3C(=O)O[C@H](/C(C)=C/[C@@H]3CC[C@H](Cl)[C@H](OC)C3)[C@H](C)[C@@H](O)CC1=O)[C@H](C)C[C@@H]2OC [Pimecrolimus] | 0.067 ± 0.47 | -2.61 ± 0.65 | -0.801 | -4.74 | -1.77 | -3.38 |
| CNNCc1ccc(C(=O)NC(C)C)cc1 [Procarbazine HCl (Matulane)] | -0.725 ± 0.047 | -0.233 ± 0.21 | 1.25 | 0.367 | 0.0385 | -1.16 |
| Clc1ccc(COC(Cn2ccnc2)c2ccc(Cl)cc2Cl)cc1 (centres undefined) [Econazole nitrate (Spectazole)] | -1.85 ± 0.077 | -2.97 ± 0.048 | -1.59 | -4.44 | -2.03 | -1.54 |
| CCN1CCN(C(=O)N[C@@H](C(=O)N[C@@H]2C(=O)N3C(C(=O)O)=C(CSc4nnnn4C)CS[C@H]23)c2ccc(O)cc2)C(=O)C1=O [Cefoperazone (Cefobid)] | 0.455 ± 1.1 | -0.187 ± 0.048 | -0.228 | 0.146 | -0.344 | -0.729 |
| Cc1ccc(O)c([C@H](CCN(C(C)C)C(C)C)c2ccccc2)c1 [Tolterodine tartrate (Detrol LA)] | -0.682 ± 0.19 | -0.638 ± 0.23 | 0.416 | -1.32 | -0.651 | -0.439 |
| COC(=O)C1=CCCN(C)C1 [Arecoline] | 0.24 ± 0.16 | 0.796 ± 0.4 | 0.355 | -1.05 | -0.0245 | 0.864 |
| CC(C)c1nc(N(C)S(C)(=O)=O)nc(-c2ccc(F)cc2)c1/C=C/[C@@H](O)C[C@@H](O)CC(=O)O [Rosuvastatin calcium (Crestor)] | -0.8 ± 0.25 | -0.567 ± 0.31 | 0.313 | 0.0538 | -0.386 | -0.466 |
| CCC(CC)[C@H](NC(C)=O)[C@@H]1[C@H](O)[C@@H](C(=O)O)C[C@H]1NC(=N)N [Peramivir Trihydrate] | -0.252 ± 1.5 | 0.251 ± 0.28 | 0.171 | -0.295 | 0.074 | 0.722 |
| CC(C(=O)O)c1ccc2c(c1)CC(=O)c1ccccc1S2 (centres undefined) [Zaltoprofen] | -0.138 ± 0.27 | 0.426 ± 0.36 | 1.76 | 0.0928 | 0.285 | 0.539 |
| CNC[C@@H](O)c1ccc(O)c(O)c1 [L-Adrenaline (Epinephrine)] | -0.133 ± 0.041 | -0.525 ± 1.1 | -1.72 | -1.6 | -1.01 | -0.4 |
| COc1cc(NS(=O)(=O)c2ccc(N)cc2)nc(OC)n1 [Sulphadimethoxine] | 0.218 ± 0.95 | 0.327 ± 0.093 | 1.05 | -0.0472 | 0.658 | 0.127 |
| Cc1cn([C@H]2C[C@H](N=[N+]=[N-])[C@@H](CO)O2)c(=O)[nH]c1=O [Zidovudine (Retrovir)] | -1.19 ± 0.23 | -0.61 ± 0.26 | -0.661 | -1.4 | -0.885 | 0.463 |
| NC(=O)c1cccnc1 [Nicotinamide (Niacinamide)] | 0.379 ± 1.6 | -0.0898 ± 0.56 | 1.2 | 0.252 | 0.661 | 0.62 |
